Measurements published in the BET-seq Pho4 binding data (Le et al. 2018).
This is one part of the list. Values were computed here from the reads of four pooled replicates and scatter widely.

The sequences below were run against T1, Pho4 (S. cerevisiae) (UniProt P07270) (assay: relative binding free energy (BET-seq); higher = weaker binding). Details: reference: library average.
T1 sequence: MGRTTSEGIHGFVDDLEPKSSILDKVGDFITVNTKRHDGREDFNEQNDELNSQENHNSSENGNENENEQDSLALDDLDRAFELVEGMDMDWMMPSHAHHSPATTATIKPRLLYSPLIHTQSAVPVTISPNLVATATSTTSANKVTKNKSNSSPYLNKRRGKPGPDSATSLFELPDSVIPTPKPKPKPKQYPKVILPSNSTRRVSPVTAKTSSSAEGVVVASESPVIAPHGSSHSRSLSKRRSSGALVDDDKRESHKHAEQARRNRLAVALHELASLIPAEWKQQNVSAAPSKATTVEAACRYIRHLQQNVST
For TAGGTCACGTGGGTGA, the “relative binding free energy” value was -0.05 kcal/mol.
With AGGGGCACGTGTATGT the “relative binding free energy” value was -0.05 kcal/mol.
TATGCCACGTGGGGCT was tested, and the “relative binding free energy” value was -0.22 kcal/mol.
With ATGGTCACGTGGTGGT the “relative binding free energy” value was 0.09 kcal/mol.
For GGGATCACGTGTGACT, the “relative binding free energy” value was 0.31 kcal/mol.
With TGGTACACGTGGGAAA the “relative binding free energy” value was 0.12 kcal/mol.
For CTTTACACGTGATTGT, the “relative binding free energy” value was 0.29 kcal/mol.
In the case of GCGGGCACGTGGGGGC, the “relative binding free energy” value is reported as -0.23 kcal/mol.
ATATACACGTGGTCGG was tested, and the “relative binding free energy” value was -0.15 kcal/mol.
With TTTGGCACGTGTGGGA the “relative binding free energy” value was -0.05 kcal/mol.
In the case of CCGTGCACGTGATGGA, the “relative binding free energy” value is reported as 0.31 kcal/mol.
With GTATGCACGTGCGGTC the “relative binding free energy” value was 0.22 kcal/mol.
For TTGGACACGTGCGGGC, the “relative binding free energy” value was -0.05 kcal/mol.
With TCGTACACGTGGGGAG the “relative binding free energy” value was -0.07 kcal/mol.
For GTAGACACGTGTATGT, the “relative binding free energy” value was 0.1 kcal/mol.
For TGGTACACGTGAAATA, the “relative binding free energy” value was 0.33 kcal/mol.
ATAAGCACGTGTCGGT was tested, and the “relative binding free energy” value was -0.09 kcal/mol.
For CCGGGCACGTGTTGGT, the “relative binding free energy” value was -0.14 kcal/mol.
For GTGTTCACGTGGGTGC, the “relative binding free energy” value was 0.23 kcal/mol.
With CGGTGCACGTGGAGGA the “relative binding free energy” value was -0.03 kcal/mol.
In the case of CTGGACACGTGGGTGA, the “relative binding free energy” value is reported as -0.08 kcal/mol.
With TTTGACACGTGTGGGC the “relative binding free energy” value was 0.14 kcal/mol.
ATACGCACGTGGGGGA was tested, and the “relative binding free energy” value was -0.26 kcal/mol.
In the case of GATATCACGTGAGGGA, the “relative binding free energy” value is reported as 0.29 kcal/mol.
With GCTTGCACGTGTGTCT the “relative binding free energy” value was 0.11 kcal/mol.
In the case of AGGTACACGTGCAAGG, the “relative binding free energy” value is reported as 0.1 kcal/mol.
In the case of AGTACCACGTGTGTAT, the “relative binding free energy” value is reported as -0.01 kcal/mol.
In the case of TTGCGCACGTGGGAGC, the “relative binding free energy” value is reported as -0.14 kcal/mol.
In the case of AAGGTCACGTGGTTAT, the “relative binding free energy” value is reported as 0.08 kcal/mol.
In the case of ACGGTCACGTGTGCGG, the “relative binding free energy” value is reported as 0.09 kcal/mol.
In the case of CTCTGCACGTGGGGGA, the “relative binding free energy” value is reported as -0.18 kcal/mol.
GTGGCCACGTGGGCAT was tested, and the “relative binding free energy” value was -0.23 kcal/mol.
With TCTAGCACGTGTGTTG the “relative binding free energy” value was -0.11 kcal/mol.
In the case of CAGAACACGTGGTGGG, the “relative binding free energy” value is reported as -0.15 kcal/mol.
TGGAGCACGTGGAACG was tested, and the “relative binding free energy” value was 0.1 kcal/mol.
For GGCGTCACGTGTAGGA, the “relative binding free energy” value was -0.04 kcal/mol.
With CTGATCACGTGATTGG the “relative binding free energy” value was 0.17 kcal/mol.
With TTAGACACGTGTAAGG the “relative binding free energy” value was 0.02 kcal/mol.
With TTGCGCACGTGCGTAT the “relative binding free energy” value was -0.12 kcal/mol.
For GTGGACACGTGGTCTT, the “relative binding free energy” value was 0.04 kcal/mol.
For CGGTGCACGTGGGAAA, the “relative binding free energy” value was -0.06 kcal/mol.
For ACATGCACGTGGGGCT, the “relative binding free energy” value was -0.19 kcal/mol.
With TGAGTCACGTGTCTCG the “relative binding free energy” value was 0.18 kcal/mol.
In the case of AAAATCACGTGTGTAG, the “relative binding free energy” value is reported as 0.16 kcal/mol.
With GGCGTCACGTGGTTGT the “relative binding free energy” value was 0.17 kcal/mol.
For TAGCGCACGTGGGGGG, the “relative binding free energy” value was -0.24 kcal/mol.
ATTTTCACGTGGGCAT was tested, and the “relative binding free energy” value was 0.17 kcal/mol.
AGTGTCACGTGCTGGA was tested, and the “relative binding free energy” value was 0.06 kcal/mol.
In the case of TTGAGCACGTGGTGAG, the “relative binding free energy” value is reported as -0.12 kcal/mol.
With GAAGGCACGTGGTAGA the “relative binding free energy” value was -0.16 kcal/mol.
TAGGACACGTGGGTAG was tested, and the “relative binding free energy” value was -0.18 kcal/mol.
In the case of TGCAGCACGTGAGATT, the “relative binding free energy” value is reported as 0.31 kcal/mol.
In the case of GTTGCCACGTGGTAGA, the “relative binding free energy” value is reported as -0.07 kcal/mol.
For ATGGGCACGTGATTCT, the “relative binding free energy” value was -0.04 kcal/mol.
For AGAGGCACGTGGATCG, the “relative binding free energy” value was -0.06 kcal/mol.
In the case of GAAAGCACGTGTTGTG, the “relative binding free energy” value is reported as -0.13 kcal/mol.
With TGGCGCACGTGGACAG the “relative binding free energy” value was -0.02 kcal/mol.
GGCCTCACGTGTTTTG was tested, and the “relative binding free energy” value was 0.29 kcal/mol.
GTGGTCACGTGCAGGA was tested, and the “relative binding free energy” value was 0.09 kcal/mol.
In the case of CGTTTCACGTGTTCTT, the “relative binding free energy” value is reported as 0.29 kcal/mol.
In the case of GGATTCACGTGTGGAA, the “relative binding free energy” value is reported as 0.31 kcal/mol.
With GTAGACACGTGGTTTG the “relative binding free energy” value was -0.05 kcal/mol.
In the case of TCGTACACGTGTGTAT, the “relative binding free energy” value is reported as 0.11 kcal/mol.
In the case of TGGTTCACGTGTCTAT, the “relative binding free energy” value is reported as 0.21 kcal/mol.
AGATTCACGTGTAAAT was tested, and the “relative binding free energy” value was 0.31 kcal/mol.
With TTCATCACGTGATAGT the “relative binding free energy” value was 0.1 kcal/mol.
GGATTCACGTGAGTAG was tested, and the “relative binding free energy” value was 0.3 kcal/mol.
With AATATCACGTGTTAGT the “relative binding free energy” value was 0.06 kcal/mol.
For TTGTGCACGTGGGGAC, the “relative binding free energy” value was -0.18 kcal/mol.
ATGTGCACGTGTGTTT was tested, and the “relative binding free energy” value was -0.07 kcal/mol.
AGGTGCACGTGTGGAA was tested, and the “relative binding free energy” value was 0.12 kcal/mol.
TTTGACACGTGGGTCT was tested, and the “relative binding free energy” value was -0.07 kcal/mol.
With AGTCTCACGTGAATGT the “relative binding free energy” value was 0.43 kcal/mol.
With AGGGACACGTGGAGAG the “relative binding free energy” value was 0 kcal/mol.
In the case of GAGTGCACGTGAGTAT, the “relative binding free energy” value is reported as 0.07 kcal/mol.
For TGACGCACGTGGGTAA, the “relative binding free energy” value was -0.22 kcal/mol.
GTGAGCACGTGATTGA was tested, and the “relative binding free energy” value was 0.18 kcal/mol.
For TCGATCACGTGTTTAA, the “relative binding free energy” value was 0.33 kcal/mol.
With GTAGTCACGTGAAGAG the “relative binding free energy” value was 0.28 kcal/mol.
GGTCACACGTGATGTG was tested, and the “relative binding free energy” value was 0.15 kcal/mol.
TTTATCACGTGGAAGG was tested, and the “relative binding free energy” value was 0.26 kcal/mol.
For GTATGCACGTGGAATT, the “relative binding free energy” value was 0.06 kcal/mol.
For GGTGTCACGTGTCTAA, the “relative binding free energy” value was 0.13 kcal/mol.
GTCTGCACGTGATGGT was tested, and the “relative binding free energy” value was 0.3 kcal/mol.
For GGGGACACGTGACGGG, the “relative binding free energy” value was 0.22 kcal/mol.
For AGAAGCACGTGTGTGA, the “relative binding free energy” value was -0.14 kcal/mol.
With AAGGGCACGTGGGTGG the “relative binding free energy” value was -0.19 kcal/mol.
For CGGGGCACGTGGAGGG, the “relative binding free energy” value was -0.09 kcal/mol.
For GTGAGCACGTGCGATA, the “relative binding free energy” value was 0.07 kcal/mol.
In the case of TTTTTCACGTGGATCG, the “relative binding free energy” value is reported as 0.31 kcal/mol.
With TGTTACACGTGGGGAG the “relative binding free energy” value was -0.01 kcal/mol.
For TTTCTCACGTGCGTGT, the “relative binding free energy” value was 0.09 kcal/mol.
TTTTGCACGTGCGAGT was tested, and the “relative binding free energy” value was 0.06 kcal/mol.
For TATGGCACGTGAAGGG, the “relative binding free energy” value was 0.25 kcal/mol.
GATAGCACGTGGAGTT was tested, and the “relative binding free energy” value was -0.01 kcal/mol.
For GGGCTCACGTGTAGAG, the “relative binding free energy” value was 0.27 kcal/mol.
For GCGTTCACGTGTCTTG, the “relative binding free energy” value was 0.22 kcal/mol.
For CGTATCACGTGTTTAT, the “relative binding free energy” value was 0.07 kcal/mol.
For CTGGGCACGTGCATGT, the “relative binding free energy” value was -0.26 kcal/mol.
ATCTACACGTGGGGAG was tested, and the “relative binding free energy” value was 0.06 kcal/mol.
In the case of CGTGGCACGTGGGGTG, the “relative binding free energy” value is reported as -0.24 kcal/mol.
For GGTGGCACGTGTAGTC, the “relative binding free energy” value was -0.02 kcal/mol.
In the case of GTTAGCACGTGCATGG, the “relative binding free energy” value is reported as -0.01 kcal/mol.
For TTGAACACGTGGTTTC, the “relative binding free energy” value was 0.01 kcal/mol.
GATTACACGTGAGGAG was tested, and the “relative binding free energy” value was 0.4 kcal/mol.
For GTAGTCACGTGTAGTT, the “relative binding free energy” value was 0.25 kcal/mol.
GTTTTCACGTGTTGTC was tested, and the “relative binding free energy” value was 0.31 kcal/mol.
In the case of TAATACACGTGGCTGG, the “relative binding free energy” value is reported as -0.02 kcal/mol.
TCTTACACGTGGGTAG was tested, and the “relative binding free energy” value was -0.05 kcal/mol.
GTTGCCACGTGTAGGC was tested, and the “relative binding free energy” value was 0.1 kcal/mol.
GTGGACACGTGTCTTG was tested, and the “relative binding free energy” value was 0.04 kcal/mol.
In the case of TATTACACGTGCTTGG, the “relative binding free energy” value is reported as 0.1 kcal/mol.
With GGGGGCACGTGTGCAT the “relative binding free energy” value was -0.09 kcal/mol.
In the case of TTCTTCACGTGTAGTA, the “relative binding free energy” value is reported as 0.18 kcal/mol.
TAGGCCACGTGTAGTT was tested, and the “relative binding free energy” value was -0.03 kcal/mol.
